# Source: the supplement of paper PMC8728848
# Some of the results follow.
# Tests used:
# Assay in all cases: glycan array binding signal (z-score within array); higher = stronger binding
# Details in all cases: glycan notation: IUPAC condensed, linker removed
# [1] = target: Gal(b1-4)GlcNAc(b1-6)Gal(b1-4)GlcNAc
# In short: (§1)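 The binding signal is a Z-score computed within each array. Data were drawn from 3228 arrays in the Consortium for Functional Glycomics database, restricted to those with a known protein sequence. Scores were averaged over arrays of the same protein sequence at different concentrations or buffers, and over linkers, and negative values can be taken as non-binding.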
# [2] = target: Gal(b1-4)GlcNAc(b1-6)Gal(b1-4)GlcNAc(b1-6)GalNAc
# In short: as §1
# [3] = target: Gal(b1-4)GlcNAc(b1-6)GalNAc
# In short: as §1
# [4] = target: Gal(b1-4)GlcNAc(b1-6)[Gal(b1-3)]GalNAc
# In short: as §1
# [5] = target: Gal3S(b1-3)GalNAc
# In short: as §1
# [6] = target: Gal3S(b1-3)GlcNAc
# In short: as §1
# [7] = target: Gal3S(b1-3)[Fuc(a1-4)]GlcNAc
# In short: as §1
# [8] = target: Gal3S(b1-4)Glc
# In short: as §1
# [9] = target: Gal3S(b1-4)Glc6S
# In short: as §1
# [10] = target: Gal3S(b1-4)GlcNAc
# In short: as §1
# [11] = target: Gal3S(b1-4)GlcNAc6S
# In short: as §1
# [12] = target: Gal3S(b1-4)[Fuc(a1-3)]Glc
# In short: as §1
# [13] = target: Gal3S4S(b1-4)GlcNAc
# In short: as §1
# [14] = target: Gal3S6S(b1-4)GlcNAc
# In short: as §1
# [15] = target: Gal3S6S(b1-4)GlcNAc6S
# In short: as §1
# [16] = target: Gal4S(b1-4)GlcNAc
# In short: as §1
# [17] = target: Gal4S6S(b1-4)GlcNAc
# In short: as §1
# [18] = target: Gal6S(b1-4)Glc
# In short: as §1
# [19] = target: Gal6S(b1-4)Glc6S
# In short: as §1
# [20] = target: Gal6S(b1-4)GlcNAc
# In short: as §1
# [21] = target: Gal6S(b1-4)GlcNAc6S
# In short: as §1
# [22] = target: GalNAc(a1-3)Gal
# In short: as §1
# [23] = target: GalNAc(a1-3)GalNAc
# In short: as §1
# [24] = target: GalNAc(b1-3)Gal
# In short: as §1
# [25] = target: GalNAc(b1-3)Gal(a1-4)Gal(b1-4)GlcNAc
# In short: as §1
# [26] = target: GalNAc(b1-3)Gal(a1-4)Gal(b1-4)GlcNAc(b1-3)Gal(b1-4)Glc
# In short: as §1
# [27] = target: GalNAc(b1-3)GalNAc
# In short: as §1
# [28] = target: GalNAc(b1-4)GlcNAc
# In short: as §1
# [29] = target: GalNAc(b1-4)GlcNAc(b1-2)Man(a1-3)[GalNAc(b1-4)GlcNAc(b1-2)Man(a1-6)]Man(b1-4)GlcNAc(b1-4)GlcNAc
# In short: as §1
# [30] = target: Glc(a1-4)Glc
# In short: as §1
# [31] = target: Glc(a1-6)Glc(a1-6)Glc
# In short: as §1
# [32] = target: Glc(b1-4)Glc
# In short: as §1
# [33] = target: Glc(b1-6)Glc
# In short: as §1
# [34] = target: GlcA(b1-3)Gal
# In short: as §1
# [35] = target: GlcA(b1-3)GlcNAc
# In short: as §1
# [36] = target: GlcA(b1-6)Gal
# In short: as §1
# [37] = target: GlcNAc(a1-3)Gal(b1-4)GlcNAc
# In short: as §1
# [38] = target: GlcNAc(a1-4)Gal(b1-3)GlcNAc
# In short: as §1
# [39] = target: GlcNAc(a1-4)Gal(b1-4)GalNAc
# In short: as §1
# [40] = target: GlcNAc(a1-4)Gal(b1-4)GlcNAc
# In short: as §1
# [41] = target: GlcNAc(a1-4)Gal(b1-4)GlcNAc(b1-3)Gal(b1-4)Glc
# In short: as §1
# [42] = target: GlcNAc(a1-4)Gal(b1-4)GlcNAc(b1-3)Gal(b1-4)GlcNAc
# In short: as §1
# [43] = target: GlcNAc(a1-4)Gal(b1-4)GlcNAc(b1-3)Gal(b1-4)GlcNAc(b1-3)Gal(b1-4)GlcNAc
# In short: as §1
binder,measurement,setting,value
"CCL2 (Coprinopsis cinerea), B3GA02 (protein) MDSPAVTLSAGNYIIYNRVLSPRGEKLALTYPGRQRTPVTVSPLDGSSEQAWILRSYDSNSNTWTISPVGSPNSQIGWGAGNVPVVLPPNNYVWTLTLTSGGYNIQDGKRTVSWSLNNATAGEEVSIGADATFSGRWVIEKV",glycan array binding signal (z-score),[1],-0.288
same,glycan array binding signal (z-score),[2],-0.254
same,glycan array binding signal (z-score),[3],-0.287
same,glycan array binding signal (z-score),[4],-0.292
same,glycan array binding signal (z-score),[5],-0.277
same,glycan array binding signal (z-score),[6],-0.253
same,glycan array binding signal (z-score),[7],-0.224
same,glycan array binding signal (z-score),[8],-0.285
same,glycan array binding signal (z-score),[9],-0.228
same,glycan array binding signal (z-score),[10],-0.29
same,glycan array binding signal (z-score),[11],-0.276
same,glycan array binding signal (z-score),[12],-0.268
same,glycan array binding signal (z-score),[13],-0.265
same,glycan array binding signal (z-score),[14],-0.28
same,glycan array binding signal (z-score),[15],-0.258
same,glycan array binding signal (z-score),[16],-0.26
same,glycan array binding signal (z-score),[17],-0.276
same,glycan array binding signal (z-score),[18],-0.268
same,glycan array binding signal (z-score),[19],-0.267
same,glycan array binding signal (z-score),[20],-0.288
same,glycan array binding signal (z-score),[21],-0.2
same,glycan array binding signal (z-score),[22],-0.282
same,glycan array binding signal (z-score),[23],-0.284
same,glycan array binding signal (z-score),[24],-0.268
same,glycan array binding signal (z-score),[25],-0.279
same,glycan array binding signal (z-score),[26],-0.3
same,glycan array binding signal (z-score),[27],-0.289
same,glycan array binding signal (z-score),[28],-0.279
same,glycan array binding signal (z-score),[29],-0.277
same,glycan array binding signal (z-score),[30],-0.298
same,glycan array binding signal (z-score),[31],-0.3
same,glycan array binding signal (z-score),[32],-0.3
same,glycan array binding signal (z-score),[33],-0.292
same,glycan array binding signal (z-score),[34],-0.273
same,glycan array binding signal (z-score),[35],-0.286
same,glycan array binding signal (z-score),[36],-0.284
same,glycan array binding signal (z-score),[37],-0.29
same,glycan array binding signal (z-score),[38],-0.264
same,glycan array binding signal (z-score),[39],-0.268
same,glycan array binding signal (z-score),[40],-0.281
same,glycan array binding signal (z-score),[41],-0.271
same,glycan array binding signal (z-score),[42],-0.169
same,glycan array binding signal (z-score),[43],-0.272
